Reference: the supplement of paper PMC11417369
± gives the standard deviation of the averaged measurements. Some of the results follow.

The sequences below were run on PfAP2-I AP2 domain 3 (GST-tagged) (assay: gcPBM binding intensity (ln(normalized median fluorescence intensity)); higher = stronger DNA binding).
Outline: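 Binding intensity is defined as the maximum Masliner-normalised natural-log median intensity across replicate spots for either probe orientation. It was measured on an Agilent 4 × 180k array of primer-extended double-stranded 36-bp intergenic genomic probes and negative controls, to which GST-tagged P. falciparum DNA-binding domains made in E. coli were applied for 1 h in 1× PBS with 1% milk, 0.2 mg/ml BSA, 0.5% salmon testes DNA and 0.03% Triton X-100. Detection was by Alexa488 anti-GST antibody and scanning at 488 nm.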
“ATGGTATCTTTTAGAAGTACATCATGATAATAATTT [XGTACX_site5544]” was tested, and the “gcPBM binding intensity (ln)” value was 7.64 ± 0.45.
For “GTATTAATTTATATATGTACATATGTGATATATATA [XGTACX_site5825]”, the “gcPBM binding intensity (ln)” value was 8.13 ± 0.31.
With “CAAAATTAATAAGTCACACACACATATATAATATAT [CACACA_site798]” the “gcPBM binding intensity (ln)” value was 7.7 ± 0.4.
“TATATTTATACAATATGTACATATTATATATATATA [XGTACX_site3098]” was tested, and the “gcPBM binding intensity (ln)” value was 8.83 ± 0.042.
For “TATAAAAATATATGCACACAAATAAAAAATTATATA [CACACA_site3629]”, the “gcPBM binding intensity (ln)” value was 9.05 ± 0.42.
“ATTTAATAACGGCATGCATGTCCTTATATAAATTTA [TGCATGCA_site1012]” was tested, and the “gcPBM binding intensity (ln)” value was 7.79 ± 0.69.
For “TGAATTGTAATTTATAATATACGTGGTTTCTACTTA [CACACA_negctrl_site559]”, the “gcPBM binding intensity (ln)” value was 7.33 ± 0.64.
“CCTTACCAAATAATATGTACACATTTAATGTTATAT [XGTACX_site7840]” was tested, and the “gcPBM binding intensity (ln)” value was 8.14 ± 0.19.
With “TATTATATATTATATAGTACATATTTATGTAAGAGG [XGTACX_site3099]” the “gcPBM binding intensity (ln)” value was 8.03 ± 0.42.
“TATCAGTATACAACAACACACATAATGTTTGTCATC [CACACA_site2980]” was tested, and the “gcPBM binding intensity (ln)” value was 7.65 ± 0.48.
For “CACTTAAAAAAAATACGTACACATATATATATATAT [XGTACX_site2054]”, the “gcPBM binding intensity (ln)” value was 9.53 ± 0.32.
For “CAAAAATAAATATAAACACACAATAAATAAATAAAT [CACACA_site891]”, the “gcPBM binding intensity (ln)” value was 7.79 ± 1.
“AAAAAAAAAACAAATGCATGTAATATAAGAATTACA [TGCATGCA_site908]” was tested, and the “gcPBM binding intensity (ln)” value was 7.45 ± 0.6.
“ACTTATAATATTTAGTGTACATATTGTGACTAATAC [XGTACX_site1508]” was tested, and the “gcPBM binding intensity (ln)” value was 8.07 ± 0.49.
For “ATTTTAAAAAATTAATGTACTTAATTAATACTGAAA [XGTACX_site7702]”, the “gcPBM binding intensity (ln)” value was 7.59 ± 0.25.
“TATTTATAAATTTACACACACACATGTGAACATAAA [CACACA_site1909]” was tested, and the “gcPBM binding intensity (ln)” value was 7.89 ± 0.48.
For “TATCAAAAAAAAAGTAGTACGATAATAGTTTCCCAA [XGTACX_site1812]”, the “gcPBM binding intensity (ln)” value was 7.87 ± 0.18.
In the case of “CACCCATACACATACAAACACACATTCTATATATAT [CACACA_site1600]”, the “gcPBM binding intensity (ln)” value is reported as 8.35 ± 0.33.
In the case of “GAAATTAAATGACATACACACTATATTATATATTTT [CACACA_site5693]”, the “gcPBM binding intensity (ln)” value is reported as 7.67 ± 0.51.
For “TAGATAGATTAAAATACATGCATATTATTAAAAAAT [TGCATGCA_site739]”, the “gcPBM binding intensity (ln)” value was 7.68 ± 0.57.
For “AATCATAAACATTATGCACACAAAAATAAAAAAAAA [CACACA_site8289]”, the “gcPBM binding intensity (ln)” value was 9.81 ± 0.11.
With “TATCTTCAATGTGAAAGTACTTAAATTGTTATAAAA [XGTACX_site2586]” the “gcPBM binding intensity (ln)” value was 7.75 ± 0.52.
With “ATTTAATGTATTTTGCGTACGAATTATTTTATTTCA [XGTACX_site7331]” the “gcPBM binding intensity (ln)” value was 7.93 ± 0.49.
“AGCATAAAAATGATATGTACATATATATATATATAT [XGTACX_site2836]” was tested, and the “gcPBM binding intensity (ln)” value was 9.34 ± 0.43.
In the case of “CATACATACATACATACACACATACATATGTATATA [CACACA_site7216]”, the “gcPBM binding intensity (ln)” value is reported as 8.85 ± 0.59.
With “TGGAATAAAAAAAGGAGTACAATTAATTATTCTTAA [XGTACX_site8299]” the “gcPBM binding intensity (ln)” value was 7.92 ± 0.092.
TATATATATATATATGTGCACATATTTATATGTTTT was tested, and the “gcPBM binding intensity (ln)” value was 9.85 ± 0.22.
For “GTTGTGTAATTCGTAACACACATAAAATATATATAA [CACACA_site6059]”, the “gcPBM binding intensity (ln)” value was 7.76 ± 0.48.
“ATATAGTTCGATATAGTTAGTATGAATTGAAAAATA [CACACA_negctrl_site1826]” was tested, and the “gcPBM binding intensity (ln)” value was 7.43 ± 0.54.
For “AAAAAAATAAAACACACACACAAAAAAATAAAAATA [CACACA_site465]”, the “gcPBM binding intensity (ln)” value was 7.79 ± 0.76.
With “TTTTTAAAATATTTAACACACAATTTTAATGCATAA [CACACA_site6036]” the “gcPBM binding intensity (ln)” value was 8.8 ± 0.11.
In the case of “TTTTCATTTTTTTTTTTTTTTTTTTTTCTTTTTTTT [CACACA_negctrl_site1312]”, the “gcPBM binding intensity (ln)” value is reported as 7.43 ± 0.31.
For “ATTTCTTTAATATACACACACCAAAACAAAAAAAAA [CACACA_site6416]”, the “gcPBM binding intensity (ln)” value was 8.21 ± 0.42.
For “ATTTGTTCATTTGGTTGTACATAATTTATTTTTATA [XGTACX_site785]”, the “gcPBM binding intensity (ln)” value was 7.88 ± 0.63.
For “TACATTAACGGATTATTTCTCAATACAACATCATTT [CACACA_negctrl_site981]”, the “gcPBM binding intensity (ln)” value was 7.5 ± 0.47.
For “GTTTGTATGTCCAAATGTACATATGATTTTATGAAA [XGTACX_site6595]”, the “gcPBM binding intensity (ln)” value was 7.93 ± 0.4.
For “AAAATTAAAAATTACTGTACGTATTAGAGAATAAAT [XGTACX_site2567]”, the “gcPBM binding intensity (ln)” value was 7.74 ± 0.5.
“AAAAAATATTGAAGTACACACATTATAAACTTTTTT [CACACA_site5029]” was tested, and the “gcPBM binding intensity (ln)” value was 7.75 ± 0.46.
“ACCTAATTCAAATACAGTACATATACAATATATATA [XGTACX_site2779]” was tested, and the “gcPBM binding intensity (ln)” value was 8.11 ± 0.79.
For “AAAATATTAATTAATACATGCATATATATATATATA [TGCATGCA_site585]”, the “gcPBM binding intensity (ln)” value was 9.4 ± 0.61.
“TATATTGTATAAAAATGTACATGCAATAAATTTAGT [XGTACX_site5621]” was tested, and the “gcPBM binding intensity (ln)” value was 8.69 ± 0.45.
In the case of “TATATTATAATAAGACGTACAAGGATGTTAAAACTT [XGTACX_site5828]”, the “gcPBM binding intensity (ln)” value is reported as 7.92 ± 0.57.
For TTAATTATGGACAGGGTGCACATGAATAATAATACC, the “gcPBM binding intensity (ln)” value was 11 ± 0.18.
In the case of “ATACTAAATGAACACACACACATATATATATATAAT [CACACA_site4232]”, the “gcPBM binding intensity (ln)” value is reported as 8 ± 0.53.
